Among all 360,000 compounds or so, about 740 (0.21%) were called active. Inconclusive means that the source gave no clear call. Such entries were picked first, then a sample of the others. The call rests on the fitted dose curve; in most records, active means well fitted inhibition curve with a large enough effect; inconclusive means small, poorly fitted or top-dose-only effect; inactive means no such curve, though single readings can be large or run the other way. No potency is given beside an inconclusive call; the fits are too rough.
What follows are compounds tested on Plasmodium falciparum AMA1 (3D7) - RON2 peptide interaction (assay: qHTS for Inhibitors of AMA1-RON; Towards Development of Antimalarial Drug Lead: Primary Screen). Details: AlphaScreen AMA1-biotinylated RON2 peptide binding; activity change, negative = inhibition: at 58.2 µM (top of the series) unless noted.
Procedure, shortened: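 AMA1 (3D7) with his tag at 25 nM final met compounds first, then biotinylated RON2 peptide at 25 nM; detection used donor plus acceptor beads, 10 µg/mL apiece, read by AlphaScreen after 30 min at room temperature.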
Further: nearly all actives have a fitted effect of over 45% in size.
Potency means the concentration at half of the fitted maximal effect; tags describe the fitted curve by direction and shape.
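Wherever activity change, negative = inhibition is given: 0% = vehicle wells and -100% = peptide control.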

SMILES	Potency	activity change, negative = inhibition
COc1ccc(C(=O)Nc2ccc(N3CCCCCC3)cc2)cc1S(=O)(=O)N1CCOCC1	inconclusive [inhibitor, single point]	
COCCCn1c(=NC(=O)c2ccccc2)c(C#N)cc2c(=O)n3cccc(C)c3nc21		inactive: 4.95%
COc1ccccc1C(=O)N1CCN(Cc2cccnc2)CC1	inconclusive [inhibitor, partial curve]	
COc1cccc(C(=O)NCC2CCCN(C(=O)Cc3cccc(C)c3)C2)c1OC (stereo unspecified)		inactive: 8.7%
Fc1ccc(CNC(=S)Nc2ccccc2Cl)cc1		inactive: 3.17% [at 2.32 µM]
CCn1nc(C)c(CN2CCCC(CO)(Cc3cccc(Cl)c3)C2)c1C (stereo unspecified)		inactive: 1.12%
COCCNCCCCOc1ccccc1-c1ccccc1	inconclusive [inhibitor, partial curve]	
COC(=O)C1=C(c2ccc(F)cc2OCc2ccccc2)C[C@@H]2CC[C@H]1N2C(=O)NCc1ccc(N(C)C)cc1	inconclusive [inhibitor, partial curve]	
COCCCNCCOCCOc1ccc(Cl)cc1Br	inconclusive [inhibitor, partial curve]	
Clc1cccc(Cl)c1OCCCCN1CCCCC1	inconclusive [inhibitor, partial curve]	
COC(=O)C1=C(C)N(CCc2ccccc2)C(=O)/C1=C\c1ccco1	inconclusive [inhibitor, single point]	
Oc1ccc(/C=N/N(Cc2ccccc2)c2ccccc2)cc1	inconclusive [inhibitor, single point]	
O=C(O/N=C\c1ccc(N2CCOCC2)c([N+](=O)[O-])c1)c1ccccc1Cl	inconclusive [inhibitor, single point]	
CCOC(=O)c1ccccc1NC(=O)CCNC(=O)Cn1cnc2ccccc2c1=O	inconclusive [inhibitor, partial curve]	
Clc1ccc(CN(Cc2ccccc2)C(c2cccs2)c2nnnn2C2CCCC2)cc1 (stereo unspecified)	inconclusive [inhibitor, full curve]	
Cc1ccc(-c2nn(-c3ccccc3)cc2NC(=O)c2ccccc2)cc1	inconclusive [inhibitor, partial curve]	
O=C(CN1C(=O)/C(=C2\SC(=S)N(CCS(=O)(=O)O)C2=O)c2ccccc21)Nc1cccc(Br)c1	inconclusive [inhibitor, single point]	
COc1ccc(N2CCC(CNC(=O)Nc3ccc(OC)cc3OC)C2)cc1 (stereo unspecified)	inconclusive [inhibitor, partial curve]	
CCc1cc2c(=O)[nH]c(COC)nc2s1	inconclusive [inhibitor, single point]	
c1ccc(CN2CCN(C3CCCSc4ccccc43)CC2)cc1 (stereo unspecified)	inconclusive [inhibitor, partial curve]	
c1ccc(CN2CCN(CCOCCOc3cccc4ccccc34)CC2)cc1	inconclusive [inhibitor, single point]	
O=C(CSc1nc(-c2ccccc2)nc2ccccc12)Nc1nccs1		inactive: -8.91%

SMILES	Potency	activity change, negative = inhibition
Cc1cc(C)c(OCCN2CC(C)OC(C)C2)c(Br)c1 (stereo unspecified)	inconclusive [inhibitor, partial curve]	
Cc1ccc(Cn2nnc3c(=O)[nH]c(C4CCN(C(=O)Cc5cccs5)CC4)nc32)cc1		inactive: 5.54%
Cc1ccc(CCNC(=O)C23CN(Cc4ccccc4)CC2C(c2ccc([N+](=O)[O-])cc2)=NO3)cc1 (stereo unspecified)	inconclusive [inhibitor, full curve]	
N#CC(C#N)=C(C#N)c1ccc(Nc2ccccc2)cc1		inactive: 4.92%
COc1ccccc1N1CCN(Cc2ccccc2)CC1	inconclusive [inhibitor, partial curve]	
COc1cccc(C(=O)NC(=S)Nc2nnn(C)n2)c1		inactive: 25.1%
CCN1C(=O)NC(=O)/C(=C/c2cc(C)n(-c3sc(C)c(C)c3C#N)c2C)C1=O	inconclusive [inhibitor, single point]	
COC(=O)c1ccc(C2CC(=O)NC3=C2C(=O)CCC3)cc1 (stereo unspecified)		inactive: -8.48%
COc1cc(OC)c2c(-c3ccccc3)cc(=O)oc2c1C(CC(=O)N1CCOCC1)c1ccc(N(C)C)cc1 (stereo unspecified)	inconclusive [inhibitor, single point]	
COC(=O)c1ccc(Oc2c(F)c(F)nc(N3CCOCC3)c2F)cc1	inconclusive [inhibitor, single point]	
COc1cc(O)cc2cc3c(c(O)c12)C(=O)CC(C)(O)O3 (stereo unspecified)	inconclusive [inhibitor, partial curve]	
CCN(CC)c1ccc(N)cc1	active: 11.2 µM	
C#CCOCCOCCOCCNc1nc(N2CCN(C(=O)CCCCCCCCCCNC(=O)[C@H](CCCCN)n3cc(CCO)nn3)CC2)nc(N2CCN(C(=O)CCCCCCCCCCNC(=O)[C@H](CCCN=C(N)N)n3cc(C[C@@H](C)CC)nn3)CC2)n1	inconclusive [inhibitor, single point]	
Cc1ccc(NC(=O)c2ccc3snnc3c2)cc1C		inactive: 2.23%
Cc1cc(Br)cn2c(Cc3ccsc3)c(-c3ccco3)nc12	inconclusive [inhibitor, single point]	
CCOC(=O)SC1=N/C(=C\c2ccc(N(C)C)cc2)C(=O)S1	inconclusive [inhibitor, single point]	
CCOC(=O)c1c(N2CCN(c3ccccc3)CC2)cc(C)nc1C	inconclusive [inhibitor, single point]	
Cc1ccc(-c2nnc3c4ccccc4c(C)nn23)cc1S(=O)(=O)N1CCN(CCO)CC1		inactive: 41.5%
CCc1nn2cc(-c3ccccc3)nc2s1	inconclusive [inhibitor, single point]	
CN(C)CCCN1c2ccc3ccccc3c2Sc2cccc(Cl)c21	inconclusive [inhibitor, partial curve]	
COc1ccc2c(c1)NC(C)(C)C=C2C	inconclusive [inhibitor, partial curve]	
COCCn1c(C)cc(O)c(C(=O)Nc2cccc(Cl)c2)c1=O	inconclusive [inhibitor, single point]	

SMILES	Potency	activity change, negative = inhibition
O=C(CCc1c[nH]c2ccccc12)OCc1cccc([N+](=O)[O-])c1	inconclusive [inhibitor, single point]	
COc1ccc(/C=N/OCC(=O)N=Nc2c(O)[nH]c3ccc(Br)cc23)cc1OC		inactive: -13.9%
COc1cccc2c1OCC(C(=O)NCc1ccc(Cl)cc1Cl)=C2	inconclusive [inhibitor, full curve]	
C=CCNCCOCCOc1ccc(Cl)cc1C(C)(C)C	inconclusive [inhibitor, single point]	
O=C(Nc1ccc(N2CCCC2)cc1)C(Cl)c1ccccc1 (stereo unspecified)	inconclusive [inhibitor, partial curve, poor fit]	
COc1ccc(N=CC2CCCCC2=O)c([N+](=O)[O-])c1 (stereo unspecified)	inconclusive [inhibitor, single point]	
O=C(Nc1ccccn1)C12CC3CC(C1)CC(C(=O)Nc1ccccn1)(C3)C2	inconclusive [inhibitor, full curve, poor fit]	
CN1\C(=C/C=C/C=C/C=[N+](C)C)C(C)(C)c2ccccc21	active: 22.4 µM	
O=S(=O)(Cc1c(F)cccc1Cl)c1ncn[nH]1	inconclusive [inhibitor, single point]	
COc1cccc(-c2cnc3c(NC=O)cc(-c4ccc(N(C)C)cc4)cn23)c1	inconclusive [inhibitor, partial curve]	
O=[N+]([O-])c1ccc(-c2csc(Nc3ccccc3)[n+]2Cc2ccccc2)cc1	inconclusive [inhibitor, partial curve]	
O=C(C1=C[C@H](c2ccc3c(c2)OCO3)C[C@H](OCc2ccc(CO)cc2)O1)N1CCN(Cc2ccc3c(c2)OCO3)CC1	inconclusive [inhibitor, partial curve]	
CC(CNc1ccc([N+](=O)[O-])c2cccnc12)Nc1c([N+](=O)[O-])cc(C(F)(F)F)cc1[N+](=O)[O-] (stereo unspecified)	inconclusive [inhibitor, partial curve]	
COc1cc2c3c(c1)C(C)=CC(C)(C)N3C(=O)C2=O	inconclusive [inhibitor, single point]	
Cc1cc(NCCCCCCCNc2cc(C)nc3cc([N+](=O)[O-])ccc23)c2ccc([N+](=O)[O-])cc2n1	inconclusive [inhibitor, partial curve]	
COc1ccc(Br)c(C(=O)NC(C)(C)CO)c1	inconclusive [inhibitor, single point]	
O=C(O)C1=NN(c2cc(Cl)c(S(=O)(=O)O)cc2Cl)C(=O)C1	active: 2.82 µM	
CN(C)c1ccc(Nc2nc(N)c3ccccc3n2)cc1	inconclusive [inhibitor, single point]	
Cc1nonc1OCCNCCNc1ccc([N+](=O)[O-])c2cccnc12	inconclusive [inhibitor, full curve]	
CC1=N/C(=C\c2ccccc2Cl)C(=O)O1		inactive: -10.9%
Nc1ccc(Oc2cccc(Oc3ccc(N)cc3)c2)cc1	active: 31.6 µM	
CC(=O)c1ccc(NC(=O)C2CCCN(S(=O)(=O)c3cccc4nonc34)C2)cc1 (stereo unspecified)	inconclusive [inhibitor, partial curve]	

Reference: PubChem BioAssay AID720542 (National Center for Advancing Translational Sciences (NCATS), 2013)
